From patent publication US20140314667A1, “METHODS OF TREATING EPIDERMAL GROWTH FACTOR DELETION MUTANT VIII RELATED DISORDERS” (AMGEN INC., priority 2011, published 2014)

Assays:
[1] = test system: wild type EGFr peptide-OVA; test: Hybridoma supernatant ELISA counter screen on wild type EGFr peptide-OVA coated plates; type: binding; details: clone supernatant
Protocol: (§1) Cells were plated in flat bottomed 96-well tissue culture plates at 4×10^4 cells per well. Cultures were maintained in HAT (hypoxanthine, aminopterin and thymidine) supplemented media for 2 weeks before transfer to HT (hypoxanthine and thymidine) supplemented media. Hybridomas were selected for by survival in HAT medium and supernatants were screened for antigen reactivity by ELISA. The ELISA format entailed incubating supernatants on antigen coated plates (EGFRvIII peptide-OVA coated plates and wild type EGFr peptide-OVA coated plates as a counter screen) and detecting EGFRvIII-specific binding using horseradish peroxidase (HRP) labeled mouse anti-human IgG (see Table 2.1).

EGFRvIII peptide-OVA = target: T1, EGFRvIII peptide-OVA (Homo sapiens, UniProt P00533, DELINS30-297G); test: Hybridoma supernatant ELISA on EGFRvIII peptide-OVA coated plates; type: binding; details: clone supernatant
T1 construct: 207 μg of EGFRvIII PEP3 was reduced; host or cells: synthetic peptide, chemical conjugation
Protocol: as §1

[2] = target: T2, EGFRvIII receptor in NR6 M cells (Homo sapiens, UniProt P00533, DELINS30-297G); test: Internalization of EGFRvIII receptor by recombinant mAbs (FACS); type: cell-based
T2 construct: NR6 M cells stably expressing full length EGFRvIII; expressed in transfected cells; host or cells: NR6 cells (NR6 M)
Protocol: XenoMax derived IgG1 recombinant antibodies were expressed, purified and quantitated as described previously. Antibodies were further assayed for their ability to internalize the EGFRvIII receptor in NR6 M cells. […] The cells were washed with cold 10% FCS in PBS and secondary antibody (SS Alexa antihuman IgG Fab) at 3 μg/ml Fab was added and incubated for 7 mins on ice. The cells were washed with cold 10% FCS in PBS once and then resuspended in cold media. Next, two sets of the triplicate were incubated at 37° C. and the remaining set was incubated at 4° C. for 1 hr. After that the cells incubated at 4° C. and one set of the cells incubated at 37° C. were treated with glutathione (as previously mentioned) for 1 hr on ice. Then the cells were washed and resuspended in 100 μl of cold 1% FCS in PBS and analyzed by FACS. The % internalization was calculated from the geometric mean obtained from the FACS analysis [(mean at 37° C. with glutathione−mean at 4° C. with glutathione)/(mean at 37° C. without glutathione−mean at 4 C with glutathione)].

[3] = target: T3, EGFRvIII expressing cells (H1477) (Homo sapiens, UniProt P00533, DELINS30-297G); test: Selectivity for EGFRvIII expressing cells compared to ABX-EGF; type: binding
T3 construct: host or cells: H1477 cells

EGFRvIII = test: Affinity for EGFRvIII; type: binding; details: in words

B1: 13.1.2: subclone of hybridoma 13.1; human anti-EGFRvIII antibody, heavy/light chain SEQ ID NO: 138/140 (antibody, listed as Homo sapiens)
VH: QVQLVESGGGVVQPGRSLRLSCAASGFTFSSYGMHWVRQAPGKGLEWVAVIWYDGSNKYYVDSVKGRFTISRDNSKNTLYLQMNSLRAEDTAVYYCARDGWQQLAPFDYWGQGTLVTVSSASTKGPSVFPLAPSSKSTSGGTAALGCLVKDYFPEPVTVSWNSGALTSGV
light: [about 100 residues omitted]QLPRTFGQGTKVEIKRTVAAPSVFIFPPSDEQLKSGTASVVCLLNNFYPREAKVQWKVDNALQSGNSQ
In the case of B1, the “OD #2 EGFr” value [1] is reported as 0.041, the “OD #2 muEGFr” value (EGFRvIII peptide-OVA) is reported as 1.272 and the “OD #1 cloning plate” value (EGFRvIII peptide-OVA; cloning plate) is reported as 2.248. The “FACS Geometric mean With glutathione 4° C.” value ([2]; 0.25 μg/ml antibody, 1 hr) was 5.38, the “FACS Geometric mean With glutathione 37° C.” value ([2]; 0.25 μg/ml antibody, 1 hr) was 19.19 and the internalization by cells ([2]; in words) was “internalized well”. The “selectivity for EGFRvIII expressing cells (H1477) as compared to ABX-EGF” value [3] was “superior selectivity” and the “affinities for EGFRvIII” value (EGFRvIII) was “very high affinities”.
